Source: publication PMC4336329 (PLoS ONE, 2015)
The campaign covered roughly 310,000 compounds. About 14,000 (4.5%) showed an effect of 50% or more. The effect is printed as a negative number. The list shows a part of the results.

The compounds below were run against human ether-à-go-go-related gene (hERG) potassium channel (human, UniProt Q12809) (assay: primary screen, population patch clamp on CHO cells stably expressing hERG).
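Also: peak tail current of the secondary pulse compared with the same well before compound.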

Sequence of human ether-à-go-go-related gene (hERG) potassium channel (Q12809 whole entry, looked up): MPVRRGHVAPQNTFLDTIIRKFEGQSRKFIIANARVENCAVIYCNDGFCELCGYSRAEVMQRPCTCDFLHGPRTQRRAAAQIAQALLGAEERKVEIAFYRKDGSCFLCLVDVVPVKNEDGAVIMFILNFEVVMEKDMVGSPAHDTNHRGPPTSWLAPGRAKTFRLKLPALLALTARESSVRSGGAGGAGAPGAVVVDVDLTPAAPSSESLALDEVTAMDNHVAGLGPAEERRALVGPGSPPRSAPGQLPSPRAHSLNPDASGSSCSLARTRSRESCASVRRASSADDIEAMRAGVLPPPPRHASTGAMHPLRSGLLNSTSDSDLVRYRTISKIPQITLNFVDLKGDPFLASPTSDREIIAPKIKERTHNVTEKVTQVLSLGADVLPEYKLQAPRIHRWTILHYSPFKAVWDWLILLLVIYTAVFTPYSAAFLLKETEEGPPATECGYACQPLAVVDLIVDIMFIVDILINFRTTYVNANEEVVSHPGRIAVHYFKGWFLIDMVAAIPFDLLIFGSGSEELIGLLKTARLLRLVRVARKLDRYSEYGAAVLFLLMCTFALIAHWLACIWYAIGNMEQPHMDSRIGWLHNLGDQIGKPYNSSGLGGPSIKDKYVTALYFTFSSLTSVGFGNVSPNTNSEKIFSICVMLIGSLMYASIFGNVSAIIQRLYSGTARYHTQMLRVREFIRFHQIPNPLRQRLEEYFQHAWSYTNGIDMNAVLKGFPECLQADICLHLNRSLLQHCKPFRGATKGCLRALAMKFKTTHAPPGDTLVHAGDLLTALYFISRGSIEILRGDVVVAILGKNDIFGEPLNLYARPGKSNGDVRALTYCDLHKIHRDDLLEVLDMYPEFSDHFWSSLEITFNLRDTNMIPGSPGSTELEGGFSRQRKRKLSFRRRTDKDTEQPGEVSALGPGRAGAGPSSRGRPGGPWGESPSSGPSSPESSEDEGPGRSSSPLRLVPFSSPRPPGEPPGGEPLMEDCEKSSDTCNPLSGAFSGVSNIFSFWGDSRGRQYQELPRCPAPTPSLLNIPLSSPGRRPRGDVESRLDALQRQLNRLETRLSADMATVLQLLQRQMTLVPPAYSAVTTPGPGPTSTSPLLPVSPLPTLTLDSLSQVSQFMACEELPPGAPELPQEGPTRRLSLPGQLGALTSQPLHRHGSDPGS

First: CCOC(=O)c1sc(NC(=O)CCN2CCCCCC2)c(C(=O)OCC)c1C
Second: CCOC(=O)c1c(NC(=O)c2ccn(CC)n2)sc2c1CCC2
The “hERG current change (%, negative = inhibition) at 10uM” value of the first is lower: -24.7% for the first, 22.6% for the second.

First: N#CCCN(Cc1ccccc1)C(=S)NC(=O)c1ccccc1
Second: C=CCOC(=O)/C(=C/c1cccnc1)NC(=O)c1ccccc1
The “hERG current change (%, negative = inhibition) at 10uM” value of the first is higher: 6.65% for the first, -27.4% for the second.

Going from `COc1ccc(NC(=O)CSc2nnc(C)c3ccccc23)cc1` to `COc1cc(OC)cc(-n2nnnc2SCC(=O)Nc2ccc(C(C)=O)cc2)c1`, the “hERG current change (%, negative = inhibition) at 10uM” value falls from 18.8% to 8.96%.

Going from `C=CCN1C(=O)C(Cc2ccc(OC)cc2)S/C1=N\N=C\c1cccs1` (stereo not drawn) to `COc1ccc(/C=N/N=C2/SCC(=O)N2Cc2ccccc2)cc1`, the “hERG current change (%, negative = inhibition) at 10uM” value falls from 13.1% to -5.18%.

Going from `CCN1C(=O)/C(=C/c2ccc(C)o2)N(C)C1=S` to `COC(=O)c1ccc(Cn2nc(C)c(Cl)c2C)o1`, the “hERG current change (%, negative = inhibition) at 10uM” value falls from 11.5% to 8.75%.

Compared with `CN(C)C(=O)Oc1cccc([N+](C)(C)C)c1.[Br-]`, `COc1cccc(NC(=O)CN2C(=O)NC(C)(CCC(C)C)C2=O)c1` (stereo not drawn) is higher in “hERG current change (%, negative = inhibition) at 10uM” value: 11.5% for the first, 11.6% for the second.

Going from `O=C1NC(c2ccco2)Nc2sc3c(c21)CCN(Cc1ccccc1)C3` (stereo not drawn) to `CC(C)CC(c1nnnn1Cc1ccccc1)N1CCN(C(=O)c2ccco2)CC1` (stereo not drawn), the “hERG current change (%, negative = inhibition) at 10uM” value falls from -22% to -63.4%.

Compared with `CC(C)c1ccc(NC2CCCN(C(=O)c3ccccc3-c3ncc[nH]3)C2)cc1` (stereo not drawn), `COc1ccc(NC(=O)N2CCCC(C(=O)NCCc3ccccc3)C2)cc1` (stereo not drawn) is higher in “hERG current change (%, negative = inhibition) at 10uM” value: -8.01% for the first, 7.68% for the second.

Compared with `Cc1c(OCC(=O)N[C@@H](Cc2c[nH]c3ccccc23)C(=O)O)ccc2c1oc(=O)c1ccccc12`, `CCCCn1c(NC(=O)c2ccc(Br)o2)c(S(=O)(=O)c2ccccc2)c2nc3ccccc3nc21` is lower in “hERG current change (%, negative = inhibition) at 10uM” value: 5.16% for the first, -0.885% for the second.

Compared with `Cc1ccc(OCC(=O)N2CCN(S(=O)(=O)c3ccccc3[N+](=O)[O-])CC2)cc1`, `COc1ccc(CNC(=O)N2CCN(S(=O)(=O)c3ccc(C)cc3C)CC2)cc1` is higher in “hERG current change (%, negative = inhibition) at 10uM” value: -25.9% for the first, 3.67% for the second.

Compared with `N#CCCn1c(=S)[nH]c2ccccc21`, `COC(=O)Cc1nc2ccccc2[nH]1.Cl` is lower in “hERG current change (%, negative = inhibition) at 10uM” value: 12.9% for the first, 11.8% for the second.

First: Cc1ccc(CCN2CC(C(=O)NC3CCCC3)CC2=O)cc1 (stereo not drawn)
Second: Cc1cc(CNC(=O)C2CCC(=O)N(CCc3ccc(Cl)cc3)C2)no1 (stereo not drawn)
The “hERG current change (%, negative = inhibition) at 10uM” value of the first is higher: 6.17% for the first, -39.7% for the second.

First: COc1ccc(/C=N/NC(=O)OC(C)(C)C)cc1OC
Second: CCCNC(=O)c1cc(OC)c(OC)cc1[N+](=O)[O-]
The “hERG current change (%, negative = inhibition) at 10uM” value of the first is lower: -3.75% for the first, 5.78% for the second.

First: Nc1ncc(CN2CCCC(C(=O)Nc3ccc(-c4ccco4)cc3)C2)cn1 (stereo not drawn)
Second: COc1ccc(NC(=O)c2cnc(NS(=O)(=O)c3ccccc3)nc2)cc1
The “hERG current change (%, negative = inhibition) at 10uM” value of the first is higher: -17.8% for the first, -25.8% for the second.

Going from `Cc1cc(=O)c2cc3nc(-c4cccnc4)oc3c(Br)c2o1` to `Cc1cc(NCc2ccco2)nc2cc(O)ccc12`, the “hERG current change (%, negative = inhibition) at 10uM” value falls from 9.18% to -20.7%.

First: COc1ccccc1C(CNC(=O)c1cccc(NS(=O)(=O)c2ccc(C)c(F)c2)c1)N(C)C (stereo not drawn)
Second: COC(=O)c1ccccc1NS(=O)(=O)c1ccc2c(c1)oc(=O)n2C
The “hERG current change (%, negative = inhibition) at 10uM” value of the first is lower: -42.5% for the first, 6.16% for the second.

First: CCOC(=O)Cn1c(=NC(=O)c2nc3ccccc3s2)sc2cc(S(N)(=O)=O)ccc21
Second: CCN(CC)S(=O)(=O)c1ccc(NC(=O)Cn2cnc3ccccc3c2=O)cc1
The “hERG current change (%, negative = inhibition) at 10uM” value of the first is higher: 17.9% for the first, -32.8% for the second.

Going from `Cc1sc2c(c1C)c(=O)n(-c1ccccc1)c(=O)n2CC(=O)NCC1CCCO1` (stereo not drawn) to `Cc1nnc(SCC(=O)Nc2cc(Cl)ccc2Cl)n1CC1CCCO1` (stereo not drawn), the “hERG current change (%, negative = inhibition) at 10uM” value falls from 4.3% to -14.7%.

Going from `Cn1c(N/N=C/c2cccs2)cc(=O)n(C)c1=O` to `O=C(N/N=C/c1cccs1)c1n[nH]c2c1CCC2`, the “hERG current change (%, negative = inhibition) at 10uM” value rises from 9.45% to 10.1%.

First: COC(=O)c1ccc(NC(=O)C(OC)c2ccccc2)cc1 (stereo not drawn)
Second: COc1cccc(C(=O)Nc2ccc(C(=O)c3ccncc3)cc2)c1
The “hERG current change (%, negative = inhibition) at 10uM” value of the first is higher: 7.04% for the first, -11.7% for the second.

First: COc1ccc(N(C(=O)Cc2cccs2)C(C(=O)NC2CCCCC2)c2cccn2C)cc1 (stereo not drawn)
Second: O=C(NC1CCCC1)C(c1ccc(N2CCOCC2)cc1)N(C(=O)c1ccco1)c1ccccc1F (stereo not drawn)
The “hERG current change (%, negative = inhibition) at 10uM” value of the first is lower: -2.49% for the first, 26% for the second.

Going from `CC(C)C/C=C1\CCc2c([nH]c3ccccc23)C1=O` to `CCCCN(C(=O)c1cc2ccccc2o1)c1c(N)n(CC(C)C)c(=O)[nH]c1=O`, the “hERG current change (%, negative = inhibition) at 10uM” value falls from 25.1% to 5.2%.

First: Cc1cccc(NC(=O)CCc2ccc(C)o2)c1
Second: COc1ccc(CCN(Cc2ccccn2)C(=S)Nc2cccc(C)c2)cc1OC
The “hERG current change (%, negative = inhibition) at 10uM” value of the first is higher: -2.73% for the first, -49.4% for the second.

First: O=S(=O)(Nc1cccc(-n2cnnn2)c1)c1ccccc1C(F)(F)F
Second: COc1ccccc1-n1cnnc1SCC(=O)NCc1cccs1
The “hERG current change (%, negative = inhibition) at 10uM” value of the first is higher: 12% for the first, 10.7% for the second.

First: COc1ccc(NC(=O)c2ccccc2N2C(=O)C3C4C=CC(C5CC45)C3C2=O)c(OC)c1 (stereo not drawn)
Second: Br.COc1ccccc1OCC(=O)NN1Cc2ccccc2C1=N
The “hERG current change (%, negative = inhibition) at 10uM” value of the first is higher: 5.63% for the first, 1.99% for the second.

Compared with `O=C(O)c1cc(N=Cc2c(O)c3ccccc3oc2=O)ccc1O`, `Cn1c(C(=O)N[C@@H](C(=O)O)c2ccccc2)cc2cc(Cl)ccc21` is higher in “hERG current change (%, negative = inhibition) at 10uM” value: 9.48% for the first, 25% for the second.

Compared with `Cc1ccc(S(=O)(=O)N2CCCCC2CCNC(=O)C(=O)NCc2ccco2)cc1` (stereo not drawn), `NS(=O)(=O)c1ccc(CCNC(=O)CCC(=O)c2cccs2)cc1` is higher in “hERG current change (%, negative = inhibition) at 10uM” value: -33% for the first, -4.56% for the second.

First: Cc1ccnc(NS(=O)(=O)c2ccc(NC(=O)C3C4C=CC(C4)C3C(=O)O)cc2)n1 (stereo not drawn)
Second: CCCCCC(=O)Nc1ccc(S(=O)(=O)Nc2nccnc2OC)cc1
The “hERG current change (%, negative = inhibition) at 10uM” value of the first is higher: 27.7% for the first, -34.5% for the second.

Compared with `Cc1ccc(SCc2c(C(=O)N/N=C/c3ccc4c(c3)OCO4)nnn2-c2nonc2N)cc1`, `Nc1c(C(=O)NCc2ccc3c(c2)OCO3)nnn1CC(=O)Nc1ccc(Br)cc1` is higher in “hERG current change (%, negative = inhibition) at 10uM” value: 4.12% for the first, 19% for the second.

Compared with `Cc1nc(SCC(=O)c2ccc(Cl)cc2)c([N+](=O)[O-])[nH]1`, `CN1CCN(c2ccc(Cl)cc2NC(=O)c2ccc([N+](=O)[O-])cc2)CC1` is lower in “hERG current change (%, negative = inhibition) at 10uM” value: -4.01% for the first, -10.6% for the second.

Going from `C/C(=N\OC(=O)c1ccccc1)c1c(C)nc2cc(C)ccn12` to `COC(=O)c1sc(NC(=O)CSc2nnnn2-c2ccc(C)cc2C)nc1C`, the “hERG current change (%, negative = inhibition) at 10uM” value rises from -8.66% to 6.33%.

Going from `Cc1c(Cl)c(-c2n[nH]c(=S)n2-c2ccccc2)nn1C` to `Cn1ncc2c1ncn1nc(COc3ccc4ccccc4c3)nc21`, the “hERG current change (%, negative = inhibition) at 10uM” value falls from 22.4% to -2.36%.

Compared with `Cn1ncc(Br)c1C(=O)NC1CCCCC1`, `Cl.Oc1ccc(CNC2CCCCC2)cc1` is lower in “hERG current change (%, negative = inhibition) at 10uM” value: 11.9% for the first, -1.69% for the second.

Compared with `CC(c1ccccc1)N1C(=O)NC(NC(=O)C(C)(C)C)(C(F)(F)F)C1=O` (stereo not drawn), `CC(C)N(C(=O)CSc1nnc(CNc2ccc(F)cc2)o1)C(C)C` is lower in “hERG current change (%, negative = inhibition) at 10uM” value: 7.15% for the first, -10.3% for the second.

Going from `CCC(C)(C#CCN1CCCCC1)OCCC#N` (stereo not drawn) to `Cc1nnc(SCC(=O)N2CCC(Cc3ccccc3)CC2)n(N)c1=O`, the “hERG current change (%, negative = inhibition) at 10uM” value falls from 1.44% to -12%.

Going from `O=[N+]([O-])c1ccc(-c2cn(-c3ccccc3F)c(=S)[nH]2)cc1` to `CN(Cc1nc2ccccc2c(=O)[nH]1)C(=O)c1ccc(S(=O)(=O)N(C)C)cc1`, the “hERG current change (%, negative = inhibition) at 10uM” value rises from -3.28% to 4.04%.

Compared with `COc1ccccc1/C=N/NC(=O)NC12CC3CC(CC(C3)C1)C2`, `Cc1c(C(=O)N2CCC3(CC2)OCCO3)sc2ncnc(N(C)c3ccccc3)c12` is lower in “hERG current change (%, negative = inhibition) at 10uM” value: 22.3% for the first, -16.8% for the second.

First: O=C(N/N=C1/C(=O)c2cccc3cccc1c23)c1ccc(Cl)cc1
Second: NP(=O)(Oc1ccc(Cl)cc1)Oc1ccc(Cl)cc1
The “hERG current change (%, negative = inhibition) at 10uM” value of the first is higher: 9.82% for the first, -8.04% for the second.

Going from `CCc1cc(=O)oc2cc(OCC(=O)N3CCC[C@H]3C(=O)O)ccc12` to `CCc1cc2c(=O)c(-c3nc(C)cs3)coc2cc1OC(C)C(=O)NCCO` (stereo not drawn), the “hERG current change (%, negative = inhibition) at 10uM” value falls from 14.8% to -1.02%.

Going from `CCCS(=O)(=O)c1c(S(=O)(=O)CCC)c2ccc(C(N)=O)cn2c1C(=O)c1ccc(OC)cc1` to `CN(C)S(=O)(=O)c1ccc(Cl)c(NC(=O)C2CCN(S(=O)(=O)c3cccs3)CC2)c1`, the “hERG current change (%, negative = inhibition) at 10uM” value rises from -0.976% to 6.76%.

Compared with `CC1=CC(=C(C#N)c2nc3ccccc3s2)C=C(C)N1Cc1ccco1`, `Cc1ccc(-c2csc3ncn(C(C)C(=O)O)c(=O)c23)cc1` (stereo not drawn) is higher in “hERG current change (%, negative = inhibition) at 10uM” value: -3.03% for the first, 10.6% for the second.

First: CCSc1nnc(NC(=O)[C@H](C)N2C(=O)C3CC=CCC3C2=O)s1 (stereo partly drawn)
Second: O=C(NC1CCCC1)C(c1cccnc1)N(C(=O)c1csnn1)C1CC1 (stereo not drawn)
The “hERG current change (%, negative = inhibition) at 10uM” value of the first is lower: -0.886% for the first, 4.97% for the second.

First: CC1Cc2nc(SCC(=O)Nc3ccc4c(c3)OCO4)n(-c3ccc(F)cc3)c(=O)c2S1 (stereo not drawn)
Second: CC12COC3(C(=O)Nc4ccc([N+](=O)[O-])cc4)CC1CCC32C (stereo not drawn)
The “hERG current change (%, negative = inhibition) at 10uM” value of the first is higher: -1.47% for the first, -32.1% for the second.

`O=C(COc1ccc(Br)cc1Cl)c1ccc[nH]1` was tested, and the “hERG current change (%, negative = inhibition) at 10uM” value was -16.6%.
